# The supplement of paper PMC7826260
# The list shows a part of the results. Cleavage of a single-stranded DNA pool by Rep nickase domains was read by sequencing (1 h at 37 °C, 3 µM enzyme); the outer parts of the 90-letter strands are left off. Uncut reads are compared with the no-enzyme pool on a log2 scale; strong cutting gives strongly negative numbers. There is no active / inactive call. Because reads are shares of a total, they shift together; uncut strands gain when others are lost, and binding without cutting may add a little.
# System: T1, Rep nickase domain of wheat dwarf virus
# T1 sequence (protein, residues 1-137, tag omitted): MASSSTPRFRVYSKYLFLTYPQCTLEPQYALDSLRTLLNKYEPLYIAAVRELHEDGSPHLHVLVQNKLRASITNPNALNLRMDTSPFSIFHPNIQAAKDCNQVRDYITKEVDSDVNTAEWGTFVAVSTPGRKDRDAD
# Experiment: uncleaved DNA left, log2 of reads against the no-enzyme library (log2 ratio); higher = less cleavage (more negative = more Rep cleavage of the k-mer); sequences stand for … in CTCGTCCG…ACCGGAGA
# Method: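 A pool of 90-nt single-stranded DNAs with seven random bases just before the constant AC of the nick site (name = the seven bases) was cut by 3 µM recombinant His6-SUMO-tagged Rep nickase domain (300 nM DNA, 50 mM HEPES pH 8.0, 50 mM NaCl, 1 mM MnCl2, 1 h, 37 °C, three replicates). Uncut DNA was amplified and sequenced.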
row,Sequence,uncleaved DNA left (log2)
1,GGATCCC,0.264
2,ATTCCCT,-0.184
3,TGGATTC,0.127
4,TAAAGGT,-0.59
5,AATTGGA,0.0492
6,TACGGTC,-0.0683
7,GTCTACC,0.0286
8,TCCTACT,-0.168
9,TCGCACC,-0.0909
10,TAACAGC,-0.0606
11,CACCTAT,-0.0396
12,AAAGCCT,-0.187
13,CGTCGTG,0.0691
14,AGTGCAC,0.00182
15,CAAGAAC,0.00734
16,CGCCAGC,-0.0526
17,CCGCTGC,-0.372
18,CAGGTAT,0.0867
19,CGTCAGT,-0.0573
20,ACTCGAC,0.0139

row,Sequence,uncleaved DNA left (log2)
1,AACGTAC,0.0371
2,ACAACGG,-0.0324
3,ACGAAAC,0.132
4,TGCCTTA,-0.0569
5,GTAATGG,-0.00807
6,GCTAACG,-0.0786
7,AGGTGTG,-0.148
8,ACCCTCC,0.0154
9,AGGCGGC,-0.0897
10,GATTTGT,0.0223
11,CTGATAA,0.121
12,CCCCCAA,-0.228
13,GGTATGG,0.0591
14,CTTACGC,-0.0548
15,ACGCTTT,-0.0248
16,ATCGCCT,-0.19
17,CCTGCGG,0.051
18,CAGCAGT,0.0175
19,CTTCGGC,0.0603
20,CTTTCTC,0.0516
